Laboratory results published in the supplement of paper PMC4967469.
Lines with a small IC50 respond at low doses; a limit (>, <) means that the fit lies beyond the doses tested. The AUC spans the tested range (256-fold, ending at the top dose) of the same fit; the more sensitive the line, the further below 1. For part of these data: Any top dose called inferred is not printed in the source and was worked back from the curve model. For part of these data: Drugs with an entry number were screened twice under separate entries, and the two screens often disagree.

Columns and labels:
Experiment in all cases: Viability of human cancer cell lines after 72 h of drug (GDSC screen)
Thapsigargin = compound: C/C=C(/C)C(=O)O[C@H]1C(C)=C2[C@H]([C@@H]1OC(=O)CCCCCCC)[C@@](C)(OC(C)=O)C[C@H](OC(=O)CCC)[C@@]1(O)[C@H]2OC(=O)[C@@]1(C)O [Thapsigargin]; conditions: top dose 0.512 µM; top dose inferred
Method: (§1)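 Human cancer cell lines in 384-well plates, medium with 10% serum, drug for 72 h over a 256-fold dose range (nine 2-fold or five 4-fold steps up to the top dose). Adherent lines were fixed and stained with the nucleic acid dye Syto60, suspension lines read with resazurin; signal relative to control wells, capped at 0 and 100%. One two-parameter sigmoid per drug and line, fitted in a mixed model over all curves with the slope shared within a line.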

KU-55933 = compound: O=c1cc(-c2cccc3c2Sc2ccccc2S3)oc(N2CCOCC2)c1 [KU-55933]; conditions: top dose 10 µM
Method: as §1

MPS-1-IN-1 = compound: COc1cc(N2CCC(O)CC2)ccc1Nc1cc(Nc2ccccc2S(=O)(=O)C(C)C)c2cc[nH]c2n1 [MPS-1-IN-1]; conditions: top dose 20 µM; top dose inferred
Method: as §1

(5Z)-7-Oxozeaenol = compound: COc1cc(O)c2c(c1)/C=C/C[C@H](O)[C@H](O)C(=O)/C=C\C[C@H](C)OC2=O [(5Z)-7-Oxozeaenol]; conditions: top dose 10 µM; top dose inferred
Method: as §1

Cytarabine = compound: Nc1ccn([C@@H]2O[C@H](CO)[C@@H](O)[C@@H]2O)c(=O)n1 [Cytarabine]; conditions: top dose 2 µM
Method: as §1

ABT-888 = compound: C[C@]1(c2nc3c(C(N)=O)cccc3[nH]2)CCCN1 [ABT-888]; conditions: top dose 5 µM; top dose inferred
Method: as §1

GSK269962A = compound: CCn1c(-c2nonc2N)nc2cnc(Oc3cccc(NC(=O)c4ccc(OCCN5CCOCC5)cc4)c3)cc21 [GSK269962A]; conditions: top dose inferred
Method: as §1

CP466722 = compound: COc1cc2ncnc(-n3nc(-c4ccccn4)nc3N)c2cc1OC [CP466722]; conditions: top dose 16 µM; top dose inferred
Method: as §1

Zibotentan = compound: COc1nc(C)cnc1NS(=O)(=O)c1cccnc1-c1ccc(-c2nnco2)cc1 [Zibotentan]; conditions: top dose 20 µM; top dose inferred
Method: as §1

CMK = compound: Cc1ccc(-c2c(C(=O)CCl)n(CCCO)c3ncnc(N)c23)cc1 [CMK]; conditions: top dose 4 µM; top dose inferred
Method: as §1

ABT-869 = compound: Cc1ccc(F)c(NC(=O)Nc2ccc(-c3cccc4[nH]nc(N)c34)cc2)c1 [ABT-869]; conditions: top dose 1.024 µM; top dose inferred
Method: as §1

QL-X-138 = compound: C=CC(=O)Nc1cc(-n2c(=O)ccc3cnc4ccc(-c5cn[nH]c5)cc4c32)ccc1C [QL-X-138]; conditions: top dose 10.24 µM; top dose inferred
Method: as §1

CHIR-99021 = compound: Cc1cnc(-c2cnc(NCCNc3ccc(C#N)cn3)nc2-c2ccc(Cl)cc2Cl)[nH]1 [CHIR-99021]
Method: as §1

[1] = top dose 2.5 µM, screen: GDSC drug entry 127
[2] = top dose 5 µM, screen: GDSC drug entry 1192
[3] = top dose 2.56 µM, screen: GDSC drug entry 154
[4] = top dose 10 µM, screen: GDSC drug entry 1241, top dose inferred

| Cell Line | AUC (Thapsigargin) | IC50 (Thapsigargin) | AUC (KU-55933) | IC50 (KU-55933) | AUC (MPS-1-IN-1) | IC50 (MPS-1-IN-1) | AUC ((5Z)-7-Oxozeaenol) | IC50 ((5Z)-7-Oxozeaenol) | AUC (Cytarabine) | IC50 (Cytarabine) | AUC (ABT-888) | IC50 (ABT-888) | AUC (GSK269962A; [1]) | IC50 (GSK269962A; [1]) | AUC (GSK269962A; [2]) | IC50 (GSK269962A; [2]) | AUC (CP466722) | IC50 (CP466722) | AUC (Zibotentan) | IC50 (Zibotentan) | AUC (CMK) | IC50 (CMK) | AUC (ABT-869) | IC50 (ABT-869) | AUC (QL-X-138) | IC50 (QL-X-138) | AUC (CHIR-99021; [3]) | IC50 (CHIR-99021; [3]) | AUC (CHIR-99021; [4]) | IC50 (CHIR-99021; [4]) |
| --- | --- | --- | --- | --- | --- | --- | --- | --- | --- | --- | --- | --- | --- | --- | --- | --- | --- | --- | --- | --- | --- | --- | --- | --- | --- | --- | --- | --- | --- | --- |
| WSU-DLCL2 (B-cell lymphoma, suspension) | 0.993 | > 0.512 µM | 0.908 | 9.77 µM | 0.993 | > 20 µM | 0.978 | > 10 µM | 0.909 | 1.98 µM | 0.99 | > 5 µM | 0.989 | > 2.5 µM | 0.991 | > 5 µM | 0.834 | 8.03 µM | 0.993 | > 20 µM | 0.962 | > 4 µM | 0.993 | > 1.02 µM | 0.786 | 3.65 µM | 0.992 | > 2.56 µM | 0.68 | 1.8 µM |
| YT (lymphoid neoplasm, suspension) | 0.355 | 0.0136 µM | 0.863 | 6.6 µM | 0.858 | 12.6 µM | 0.663 | 1.64 µM | 0.979 | > 2 µM | 0.984 | > 5 µM | 0.982 | > 2.5 µM | 0.972 | > 5 µM | 0.527 | 1.17 µM | 0.991 | > 20 µM | 0.992 | > 4 µM | 0.992 | > 1.02 µM | 0.488 | 0.598 µM | 0.992 | > 2.56 µM | 0.982 | > 10 µM |
| no-11 (glioma, adherent) | 0.571 | 0.0525 µM | 0.979 | > 10 µM | 0.961 | > 20 µM | 0.698 | 2.62 µM | 0.833 | 1.78 µM | 0.976 | > 5 µM | 0.949 | > 2.5 µM | 0.96 | > 5 µM | 0.766 | 7.36 µM | 0.983 | > 20 µM | 0.943 | > 4 µM | 0.975 | > 1.02 µM | 0.583 | 1.14 µM | 0.958 | > 2.56 µM | 0.961 | > 10 µM |
